Data as given in PubChem BioAssay AID1963576 (National Center for Advancing Translational Sciences (NCATS), 2024).
Screen size: about 46,000 compounds; about 60 (0.1%) were called active. Another 3% or so got no clear call; they are omitted. Calls come from the whole dose curve; as a rule, active = well fitted inhibition curve with a large enough effect; inconclusive = small, poorly fitted or top-dose-only effect; inactive = no such curve, though single readings can be large or run the other way. Some of the results follow.

test: Primary qHTS assay for Inhibitors of ovarian cancer metastasis using an organotypic tumor microenvironment (TME) model.; note: nearly all actives have a fitted effect of over 65% in size;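 for activity change, negative = inhibition: plate controls were DMSO wells for no effect and tomatine positive control wells for full effect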; conditions: SKOV3ip1-GFP adhesion/invasion on 3D omental model, fluorescence; series mostly up to 45.8 µM; activity change, negative = inhibition: at the top concentration
In short: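 Adhesion/invasion was scored as fixed GFP-labeled SKOV3ip1 cell counts (488/509 nm), normalized to DMSO and tomatine controls. Cancer cells in serum-free medium, with four compound doses (0.36-46 umol/L), sat 2 hr at RT then 16 hr at 37 C on a 48 hr fibroblast/mesothelial/ECM culture.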

Row | SMILES | activity change, negative = inhibition | outcome
1 | Cc1ccc(-n2c(=O)c3c(c4cc(C)ccc4n3C)n(CC(=O)Nc3ccc(F)cc3)c2=O)cc1 | inactive: -6.89% | 
2 | CCOC(=O)c1cc2c(=O)n3ccccc3nc2n(Cc2ccco2)c1=NC(=O)c1ccccc1Br |  | inactive
3 | Cc1c(Cl)cccc1Nc1nn2c(=O)c3ccccc3nc2s1 | inactive: 4.3% | 
4 | COC(=O)c1cc2oc3ccccc3c2n1Cc1ccc(C)cc1 | inactive: 1.9% | 
5 | O=C(NCC(c1ccco1)S(=O)(=O)c1cccs1)c1ccccc1 (stereo not given) |  | inactive
6 | COc1ccc(N2CCN(S(=O)(=O)c3ccc(CC(C)C)cc3)CC2)cc1 | inactive: -3.89% | 
7 | COC(=O)c1cc(NC(=O)c2cc3c(-c4ccccc4F)nn(C)c3s2)cc(C(=O)OC)c1 |  | inactive
8 | COc1ccc(OC)c(S(=O)(=O)NCC(c2ccc(N(C)C)cc2)N2CCOCC2)c1 (stereo not given) |  | inactive
9 | Cc1oc(-c2ccccc2F)nc1CS(=O)(=O)CC(=O)N1CCN(c2ccccc2)CC1 | inactive: -7.42% | 
10 | Cc1ccc([N+](=O)[O-])cc1NC(=O)CN(c1ccccc1)S(=O)(=O)N(C)C | inactive: 2.3% | 
11 | COc1ccc(-c2[nH]c(-c3ccc(O)cc3)nc2-c2ccccc2)cc1 |  | inactive
12 | CCOC(=O)c1cccc(NC(=O)C(C)n2nc(C)c3c(C)n(-c4ccccc4)nc3c2=O)c1 (stereo not given) | inactive: -4.09% | 
13 | Cc1ccc(Cn2c(SCC(=O)NCc3ccccc3)nc3ccsc3c2=O)cc1 |  | inactive
14 | Cc1cccc(N2CCN(S(=O)(=O)c3ccc(-c4cnc(C5CC5)o4)cc3)CC2)c1C |  | inactive
15 | COc1ccccc1CNC(=O)CC(c1ccc(F)cc1)N1Cc2ccccc2C1=O (stereo not given) | inactive: -7.11% | 
16 | Cc1ccccc1-c1noc(-c2ccc(NCC3CCCO3)c([N+](=O)[O-])c2)n1 (stereo not given) | inactive: -1.61% | 
17 | CCOc1ccc(NC(=O)Cn2c(=O)n(CCCC(=O)NCCc3ccc(Cl)cc3)c(=O)c3ccccc32)cc1 | inactive: 7.47% | 
18 | COc1ccc(CNC(=O)c2cc3c(=O)n(Cc4ccco4)ccc3nc2C)cc1 | inactive: 2.54% | 
19 | COc1cccc(NC(=O)CCNS(=O)(=O)c2ccc3c(c2)oc(=O)n3C)c1 | inactive: 2% | 
20 | COc1cc2c(cc1OC)n(Cc1cccc(C(F)(F)F)c1)c(=O)n1nc(-c3ccccc3)nc21 | inactive: -6.01% | 
21 | Cc1cc(C)c(NC(=O)CN(C)S(=O)(=O)c2ccc3c(c2)CCC(=O)N3)c(C)c1 | inactive: -7.15% | 
22 | CC(=O)c1cccc(NC(=O)c2nc(-c3ccccc3)n(-c3ccccc3)n2)c1 | inactive: -16.7% | 
23 | O=C1CCCc2cc(S(=O)(=O)N3CCCC(C(=O)NCc4ccccc4)C3)ccc2N1 (stereo not given) |  | inactive
24 | CCn1cc(C(=O)N2CCN(c3ccc(C)cc3)C(C)C2)c(=O)c2cc(S(=O)(=O)N3CCCC3)ccc21 (stereo not given) | inactive: -2.43% | 
25 | CCC(C)NC(=O)C1CCN(S(=O)(=O)c2ccc3c(c2)CCCN3C(C)=O)CC1 (stereo not given) | inactive: -20.1% | 
